Source: paper PMC9574860, “Chemical Toolkit for PARK7: Potent, Selective, and High-Throughput” (Journal of Medicinal Chemistry, 2022)
The whole screen tested about 7,900 compounds, of which about 400 (5.1%) showed an effect of 50% or more. This is one part of the list.

These molecules were tested against Parkinson's disease protein 7 (PARK7/DJ1) (human, UniProt Q99497) (assay: primary screen, percent inhibition; read as competition with a fluorescent probe by fluorescence polarization; higher = more effect of the substance). Details: 100 µM.
Chain of Parkinson's disease protein 7 (PARK7/DJ1) (Q99497 whole entry, looked up, the tested form may be a part): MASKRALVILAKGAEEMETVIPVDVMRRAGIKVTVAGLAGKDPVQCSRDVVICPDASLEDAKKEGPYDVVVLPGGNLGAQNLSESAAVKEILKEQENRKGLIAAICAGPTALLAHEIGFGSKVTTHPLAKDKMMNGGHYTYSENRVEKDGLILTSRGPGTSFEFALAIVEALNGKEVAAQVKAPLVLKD
Outline: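 Fluorescence-polarization probe displacement (JYQ-107, 20 nM final, 2 h) after 2 h preincubation of PARK7 (0.2 μM final) with each fragment at 100 μM final. Read-out ex/em 480/520 nm; remaining activity derived from FP signal loss relative to reference controls.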

Row | SMILES | Inhibition % [%]
1 | C=CC(=O)Nc1cccc(CN2CCOCC2)n1 | 10.8
2 | C=CCNC(=O)C(C#N)=Cc1ccc(C(=O)O)cc1 | 10.8
3 | Cc1cn(S(=O)(=O)c2ccc(C)c(C)c2)cn1 | 8.11
4 | C=CC(=O)NC1(c2ccc(OC)cc2)CC1 | 7.62
5 | C=CC(=O)N1CCC(NC(=O)c2oc(C)cc2C)CC1 | 3.91
6 | C=CC(=O)N1CCOC(CN(C)c2nccn(C)c2=O)C1 (stereo not shown) | 16.9
7 | C=CC(=O)NCc1noc2ccccc12 | 11.5
8 | N#Cc1ccc(C(=O)O)cn1 | 5.73
9 | COC1(CNC(=O)c2cccnc2S)CCOCC1 | 9.16
10 | CC(C)CCNC(=O)C1CCN(C(=O)CCl)CC1 | 0.13
11 | C=CC(=O)NC(c1nccn1C)c1nccn1C | 22.4
12 | CN(CC(=O)Nc1ncc(S(=O)(=O)F)s1)S(C)(=O)=O | 9.17
13 | Cc1nn(Cc2ccccc2)c(C)c1CNC(=O)CCl | 15.6
14 | C=CC(=O)N1CCSCC1S(C)(=O)=O (stereo not shown) | 0.579
15 | C=CC(=O)N(C)CC1CC1(C)C (stereo not shown) | 15.4
16 | Cc1csc(C(C#N)=Cc2ccc(C)o2)n1 | 30.7
17 | Cc1cc2cc(B3OC(C)(C)C(C)(C)O3)ccc2n1C(=O)OC(C)(C)C | 28.1
18 | O=C1CC(c2cccc(Cl)c2)=NO1 | 27.7
19 | CCNC(=O)C1CN(c2cccc(C#N)n2)C1 | 7.59
20 | C=CC(=O)N1CCn2cccc2C1C (stereo not shown) | 3.82
21 | NC(=O)Nc1ccc(S(=O)(=O)F)cc1 | 18.9
22 | COc1ccc(C(C)(C)C)cc1S(=O)(=O)n1ccnc1C | 7.71
23 | C=CCOc1ccc(Cl)nc1C#N | 3.59
24 | C=CC(=O)N1CCNC(=O)C1c1cccs1 (stereo not shown) | 4.18
25 | O=C(CCl)Nc1cc(F)cc(F)c1 | 14.6

Row | SMILES | Inhibition % [%]
26 | CCOc1ccc(C(C)C)cc1S(=O)(=O)n1cccn1 | 2.71
27 | O=C(CCl)NCC(=O)c1ccccc1 | 4.23
28 | C=CC(=O)N1CCN(c2ncc(CC)s2)CC1 | 10.2
29 | CC(=O)N1CCN(Cc2cccc(B3OC(C)(C)C(C)(C)O3)c2)CC1 | 7.71
30 | ClCCc1cnoc1 | 3.99
31 | COc1ccc(C=C(C#N)C(=O)NCc2ccco2)cc1 | 8.17
32 | C=CC(=O)N1CCOC(c2ccnc(N(C)C)n2)C1 (stereo not shown) | 4.36
33 | CN(CCc1ccccc1)c1nccnc1C#N | 3.72
34 | CC1CCCCC1NC(=O)NC(=O)CCl (stereo not shown) | 29.4
35 | CC(C)c1ccc(C2CO2)cc1 (stereo not shown) | 4.9
36 | CN1CCOC(COc2ccc(B3OC(C)(C)C(C)(C)O3)cc2)C1 (stereo not shown) | 5.14
37 | C=CC(=O)NC(C)c1nnc(C)s1 (stereo not shown) | 4.69
38 | O=C(O)C1CCCCN1C(=O)C=Cc1cncc(F)c1 (stereo not shown) | 6.97
39 | CC(C)c1n[nH]c(=O)o1 | 3.79
40 | N#CC(=Cc1ccc(-c2ccc(F)cc2)o1)C(N)=O | 31.4
41 | O=C1NC(c2ccccc2)C12CCC2 (stereo not shown) | 31.9
42 | Cc1ccc(C(NC(=O)CCl)c2cccs2)cc1 (stereo not shown) | -0.439
43 | CC1(C)OB(c2ccncc2)OC1(C)C | 4.41
44 | CN(C(=O)CCl)c1ccccc1 | 79.7
45 | Cc1ccn(S(=O)(=O)c2ccc(F)cc2)n1 | 10.8
46 | COC(=O)c1ccc(C)c(NC(=O)CCl)c1 | 3.25
47 | CC1(C)OB(c2ccc3ccoc3c2F)OC1(C)C | 19.2
48 | C=CC(=O)NC1CCC(c2ccc(F)cc2)C1 (stereo not shown) | 2.34
49 | C=CC(=O)NCCn1ccc2cc(Cl)ccc21 | 5.28
50 | CC(C)(C)c1ccc(S(=O)(=O)N[C@@H]2COC(=O)C2)cc1 | 8.26

Row | SMILES | Inhibition % [%]
51 | C=CC(=O)NCCc1ccccn1 | 9.91
52 | O=c1[nH]c(-c2ccc(O)cc2)no1 | 11.5
53 | O=C(NCCc1ccc(F)cc1)n1ccnc1 | 12.7
54 | CC(C)C1NC(=O)C12CCCCC2 (stereo not shown) | 0.71
55 | O=C1N[C@H]2CCN(C(=O)C=Cc3cccnc3)C[C@@H]2CO1 | 6.39
56 | C=CC(=O)N1CC(Cc2ccsc2)C1 | 8.28
57 | O=C(CCl)Nc1ccccc1C(=O)Nc1ccccc1 | 10.5
58 | CC(C)(C)C(=O)Nc1ccc(B2OC(C)(C)C(C)(C)O2)cn1 | 12
59 | O=C(CCl)Nc1ccc(OCc2ccccc2)cc1 | 28.9
60 | O=S(=O)(F)c1ccc(-c2cn(Cc3cc(C4CC4)no3)nn2)cc1 | 3.46
61 | C=CC(=O)NC[C@@H]1CCN(C)[C@H]1c1cccnc1 | 34
62 | CCN1CCN(c2oc(-c3ccccc3)nc2C#N)CC1 | 7.4
63 | CC(C)NC(=O)CN(C#N)c1ccccc1 | 4.98
64 | CS(=O)(=O)C(C#N)=Cc1ccc(F)c(F)c1 | 3.22
65 | C=CC(=O)Nc1ccc(OC)c(F)c1 | 4.48
66 | COc1ccc(O)c(C=C(C#N)C(N)=O)c1 | 17.7
67 | CC(Cl)c1nncn1C.Cl (stereo not shown) | 10.3
68 | CC1CCC(NC(=O)CCl)CC1 (stereo not shown) | 20.5
69 | O=C(CCl)NC(=O)NC1CCCCC1 | 12.1
70 | Cc1ncc(C=CC(=O)N2CCCC(C(C)N)C2)s1 (stereo not shown) | 10.1
71 | CC1(C)OB(c2ccc3nccnc3c2)OC1(C)C | 15.3
72 | CCN(CC)C(=O)c1ccc(NC(=O)CCl)cc1 | 43.2
73 | CN1C(=O)C(C#N)=C(N)C12CCCC2 | 9
74 | C=CC(=O)NCC1=CCOCC1 | 6.41
75 | C=CC(=O)N1CCC(NC(=O)CC2CCCCC2)CC1 | 6.78

Row | SMILES | Inhibition % [%]
76 | C=CC(=O)NC1CCN(c2ccc(C(F)(F)F)cc2)C1=O (stereo not shown) | 4.89
77 | CSc1cc(C(=O)CCl)ccc1NC(C)=O | 5.59
78 | C=CC(=O)NCc1ccnc(C)n1 | 7.47
79 | Cc1ccc(C=CC(=O)N2CCCS2(=O)=O)o1 | 21.3
80 | Cc1noc(C)c1S(=O)(=O)Oc1ccc(F)c(F)c1 | 2.05
81 | Cc1nc(S)c2ccccc2n1 | 3.7
82 | C=CC(=O)NC1CCCCCC1 | 10.8
83 | N#Cc1ccc(N2C[C@@H](C(F)(F)F)[C@H](C(N)=O)C2)cn1 | 4.76
84 | O=C(CCl)Nc1ncc(Cl)cc1Cl | 19.3
85 | C=CC(=O)NCC1(c2ccc(F)cc2Cl)CC1 | 5.77
86 | C=CC(=O)N1CCc2nocc2C1 | 4.78
87 | Cn1cc(C=C(C#N)C(=O)NCC2CCCO2)cn1 (stereo not shown) | 11.8
88 | C=CC(=O)NCC1CCCCC1 | 1.16
89 | C=CC(=O)NC(C)(C)C(=O)N1CCCC1 | 10.4
90 | Cc1nc(C=CC(=O)n2ccccc2=NC(C)C)cs1 | 8.09
91 | CC1SC(=C(C#N)C(N)=O)N(c2ccc(F)cc2)C1=O (stereo not shown) | 13.1
92 | C=CC(=O)NCc1cc(Cl)c2c(c1)OCCO2 | 5.45
93 | O=C(CCl)Nc1ccc(F)cc1 | 25.3
94 | C=CC(=O)N1CCC(CC(=O)N2CCN(CC)CC2)CC1 | 14.2
95 | CC1(C(=O)O)CCN(C(=O)C=Cc2ccc(Cl)s2)C1 (stereo not shown) | 13.3
96 | N#CN(CC(=O)NCC1CCCO1)c1ccccc1 (stereo not shown) | 8.52
97 | CCc1cccc(N(C#N)CC(=O)N2CCOCC2)c1 | 5.08
98 | C=CC(=O)NCC1=CCCC1 | 6.59
99 | Cc1ccc(NC(=O)CCl)cc1F | 48.3
100 | Cc1ccc(C=C(C#N)c2nnc3n2CCCCC3)o1 | 6.39

Row | SMILES | Inhibition % [%]
101 | CC(C)c1nc(CCNc2ccc(C#N)nc2)cs1 | 9.88
102 | C=CC(=O)Nc1nc2nc(C)cc(C)n2n1 | 12.8
103 | CC1CN(C(=O)C=Cc2c(Cl)nc3sccn23)CCO1 (stereo not shown) | 4.17
104 | C=CC(=O)N[C@H]1CCO[C@@H]1c1ccnn1C | 3.57
105 | CC1(C)C2CC=C(COCC3CO3)C1C2 (stereo not shown) | 3.87
106 | Cc1ccnc2ccc(B3OC(C)(C)C(C)(C)O3)cc12 | 0.686
107 | CC(CNC(=O)C(C#N)=Cc1ccco1)c1ccsc1 (stereo not shown) | 14.1
108 | COc1ccc(C2=NN(C(=O)CCl)C(c3ccco3)C2)cc1 (stereo not shown) | 5.54
109 | CC(C)CC(=O)Nc1ccc(C(=O)CCl)cc1 | 3.15
110 | COc1ccc2c(c1)CCN2C(=O)C=Cc1cscn1 | 9.63
111 | C=CC(=O)N1CCCC(n2ccc(C(=O)NC)n2)C1 (stereo not shown) | 8.31
112 | N#Cc1nccnc1Oc1ccc(F)cc1 | 3.72
113 | O=C(CCl)NC1CS(=O)(=O)CC1Cl (stereo not shown) | 12
114 | C=CC(=O)NC(C)C1CCC(F)(F)CC1 (stereo not shown) | 5.89
115 | OB(O)c1cc2ccccc2o1 | -1.81
116 | O=C1OCCC1Sc1ncnc2sccc12 (stereo not shown) | 6.21
117 | N#Cc1ncn(CCCOc2ccccc2)n1 | 7.03
118 | C=CC(=O)N1CCCC1c1ccc2c(c1)OCCO2 (stereo not shown) | 12.7
119 | C=CC(=O)N1CC(C)OC2(CCCOC2)C1 (stereo not shown) | 14.5
120 | N#Cc1cccc(-n2cncn2)n1 | 7.5
121 | c1ccc2c([C@@H]3CO3)cccc2c1 | 6.12
122 | O=C(Nc1cccc(S(=O)(=O)F)c1)C1(CF)CCC1 | 95.8
123 | N#Cc1ncn(Cc2ccc(F)cc2)n1 | 2.87
124 | C=CC(=O)NCC1CN(c2ccc(Cl)cc2)CCO1 (stereo not shown) | 8.73
